# Assay results published in patent US11634486B2, “Anti-SEZ6L2 antibodies and antibody drug conjugates” (Bluefin BioMedicine, Inc., priority 2016, dated 2023).
# T1: SEZ6L (293-SEZ6L) (Homo sapiens, UniProt Q9BYH1)
# T1 construct: expressed in transfected cells; host or cells: HEK 293
# T1 sequence (Q9BYH1 29-1024): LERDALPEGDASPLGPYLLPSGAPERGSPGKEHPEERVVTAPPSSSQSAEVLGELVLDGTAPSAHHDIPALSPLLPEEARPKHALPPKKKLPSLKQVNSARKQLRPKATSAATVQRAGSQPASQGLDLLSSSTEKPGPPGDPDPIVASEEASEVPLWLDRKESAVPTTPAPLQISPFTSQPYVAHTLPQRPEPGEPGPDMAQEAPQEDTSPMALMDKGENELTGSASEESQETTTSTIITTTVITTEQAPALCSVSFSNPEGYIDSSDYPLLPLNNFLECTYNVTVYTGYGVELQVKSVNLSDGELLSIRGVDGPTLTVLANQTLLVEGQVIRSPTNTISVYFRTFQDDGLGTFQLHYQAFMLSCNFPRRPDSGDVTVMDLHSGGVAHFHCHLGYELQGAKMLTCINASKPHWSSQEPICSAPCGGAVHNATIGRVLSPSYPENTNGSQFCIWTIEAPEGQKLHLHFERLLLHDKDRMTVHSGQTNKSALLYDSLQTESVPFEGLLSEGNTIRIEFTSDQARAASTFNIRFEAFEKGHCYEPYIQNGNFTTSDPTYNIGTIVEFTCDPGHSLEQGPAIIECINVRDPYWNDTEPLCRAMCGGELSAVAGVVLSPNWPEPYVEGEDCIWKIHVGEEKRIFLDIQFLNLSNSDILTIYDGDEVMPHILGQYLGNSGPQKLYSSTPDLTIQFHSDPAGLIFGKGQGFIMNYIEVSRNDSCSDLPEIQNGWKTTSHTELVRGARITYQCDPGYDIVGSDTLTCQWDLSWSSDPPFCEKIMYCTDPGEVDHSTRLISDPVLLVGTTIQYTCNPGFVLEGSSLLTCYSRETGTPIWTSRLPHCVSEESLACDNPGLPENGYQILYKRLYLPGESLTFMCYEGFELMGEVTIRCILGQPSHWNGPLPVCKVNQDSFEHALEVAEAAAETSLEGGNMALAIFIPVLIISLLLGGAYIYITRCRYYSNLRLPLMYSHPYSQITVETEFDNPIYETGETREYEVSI
# T2: SEZ6 (293-SEZ6) (Homo sapiens, UniProt Q53EL9)
# T2 construct: expressed in transfected cells; host or cells: HEK 293
# T2 sequence (Q53EL9 20-994): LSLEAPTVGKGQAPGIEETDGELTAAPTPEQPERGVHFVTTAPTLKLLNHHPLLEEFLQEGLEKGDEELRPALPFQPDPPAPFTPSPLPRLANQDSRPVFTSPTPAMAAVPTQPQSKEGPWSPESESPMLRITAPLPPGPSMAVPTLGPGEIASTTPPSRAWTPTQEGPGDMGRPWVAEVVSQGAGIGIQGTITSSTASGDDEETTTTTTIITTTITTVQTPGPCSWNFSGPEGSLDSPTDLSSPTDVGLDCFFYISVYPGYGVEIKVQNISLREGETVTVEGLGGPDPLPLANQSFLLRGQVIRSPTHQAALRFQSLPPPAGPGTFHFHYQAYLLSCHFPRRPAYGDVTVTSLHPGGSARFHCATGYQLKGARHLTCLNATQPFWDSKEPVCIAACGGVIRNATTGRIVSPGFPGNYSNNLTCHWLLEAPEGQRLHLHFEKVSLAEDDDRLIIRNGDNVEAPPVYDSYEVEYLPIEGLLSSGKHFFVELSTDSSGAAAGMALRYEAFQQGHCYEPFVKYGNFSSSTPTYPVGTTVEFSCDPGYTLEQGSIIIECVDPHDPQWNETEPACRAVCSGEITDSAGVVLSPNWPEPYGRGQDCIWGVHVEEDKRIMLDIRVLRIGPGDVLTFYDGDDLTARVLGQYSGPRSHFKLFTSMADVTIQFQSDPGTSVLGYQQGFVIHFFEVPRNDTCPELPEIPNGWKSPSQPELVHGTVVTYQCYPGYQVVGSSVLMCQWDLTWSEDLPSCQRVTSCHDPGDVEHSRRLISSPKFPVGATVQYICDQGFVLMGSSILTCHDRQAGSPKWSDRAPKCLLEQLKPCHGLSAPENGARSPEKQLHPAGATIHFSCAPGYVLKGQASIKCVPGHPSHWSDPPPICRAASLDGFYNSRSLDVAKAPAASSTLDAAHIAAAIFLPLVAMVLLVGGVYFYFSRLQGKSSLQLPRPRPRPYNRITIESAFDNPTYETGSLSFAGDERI
# B1: 3A3: human anti-SEZ6L2 antibody, VH SEQ ID NO: 79, VL SEQ ID NO: 82 (antibody, V domains shown)
# VH: QVQLQESGPGLVKPSGTLSLTCAVSGGSISSSNWWSWVRQPPGKGLEWIGEIYHSGSTNYNPSLKSRVTISVDKSKNQFSLKLSSVTAADTAVYYCAAYSGSYFEYWGQGTLVTVSSA
# VL: [sequence of about 100 residues not given]GGGTKLEIKR
# B2: 3A1: human anti-SEZ6L2 antibody, VH SEQ ID NO: 51, VL SEQ ID NO: 55 (antibody, V domains shown)
# VH: QVQLVQSGAEVKKPGASVKVSCKASGFTFTGYYILWMRQAPGQGLEWMGWINPNNGGTHYAQKFQGRVTMTRDTSISTAYMELSRLRSDDTAVYYCARDSGHDWYFDLWGRGTLVTVSSA
# VL: [sequence of about 100 residues not given]
# B3: 3A2: human anti-SEZ6L2 antibody, VH SEQ ID NO: 73, VL SEQ ID NO: 77 (antibody, V domains shown)
# VH: QVQLQESGPGLVKPSGTLSLTCAVSGGSISSYHWWSWVRQPPGKGLEWIGEIYHSGSTNYNPSLKSRVTISVDKSKNQFSLKLSSVTAADTAVYYCARWGRIAVADYWGQGTLVTVSSA
# VL: [sequence of about 100 residues not given]TFGQGTKVEIKR
# Biological target: T1, SEZ6L (293-SEZ6L)
# Test: Flow cytometry specificity on overexpressing 293 cells
# Format: binding
# Conditions: primary antibody 1 ug/ml, live cells on ice
# Description: (§1) In order to assess whether SEZ6L2 antibody modulators immunospecifically associate with human SEZ6L2, and to determine whether the same modulators cross-react with SEZ6 and SEZ6L, flow cytometry was performed using a MACSquant™ as per the manufacturer's instructions. More particularly, modulators were tested for cross reactivity to cell lines that overexpress the human homologs of SEZ6 (293-SEZ6), SEZ6L (293-SEZ6L), and SEZ6L2 (293-SEZ6L2).
# (§2) Briefly, staining for flow cytometry was performed in lx cold PBS with 0.5% BSA. Primary antibodies (1 ug/ml) were incubated with live cells on ice for one hour. After washing in the same buffer, cells were incubated with Alexa Fluro® 488-conjugated anti-human IgG secondary antibody @1:1000 (709-546-149, Jackson ImmunoResearch) on ice in the dark. After a 30 minute incubation, cells were washed in the same buffer and re-suspended in buffer plus propidium iodide (PI) to identify live cells. As a negative control, cells were incubated with secondary antibody alone. Acquisition of the data was performed on a MACSQuant® Flow Cytometer (Miltenyi Biotec) and analyzed with FlowJo software.
row,binding to 293-SEZ6L cells by flow cytometry,Molecule
1,no detectable binding,B1
2,no detectable binding,B2
3,no detectable binding,B3

# Biological target: T2, SEZ6 (293-SEZ6)
# Test: as above
# Format: binding
# Conditions: primary antibody 1 ug/ml, live cells on ice
# Description: as §1, §2
row,binding to 293-SEZ6 cells by flow cytometry,Molecule
1,no detectable binding,B1
2,no detectable binding,B2
3,no detectable binding,B3

# Biological target: T3, SEZ6L2 (293-SEZ6L2) (Homo sapiens, UniProt Q6UXD5)
# T3 construct: cDNA encoding the complete mature human SEZ6L2 protein containing a C-terminal FLAG tag was purchased from Origene; FLAG (C); host or cells: HEK 293
# Test: as above
# Format: binding
# Conditions: primary antibody 1 ug/ml, live cells on ice
# Description: as §1, §2
# T3 sequence (Q6UXD5 28-910): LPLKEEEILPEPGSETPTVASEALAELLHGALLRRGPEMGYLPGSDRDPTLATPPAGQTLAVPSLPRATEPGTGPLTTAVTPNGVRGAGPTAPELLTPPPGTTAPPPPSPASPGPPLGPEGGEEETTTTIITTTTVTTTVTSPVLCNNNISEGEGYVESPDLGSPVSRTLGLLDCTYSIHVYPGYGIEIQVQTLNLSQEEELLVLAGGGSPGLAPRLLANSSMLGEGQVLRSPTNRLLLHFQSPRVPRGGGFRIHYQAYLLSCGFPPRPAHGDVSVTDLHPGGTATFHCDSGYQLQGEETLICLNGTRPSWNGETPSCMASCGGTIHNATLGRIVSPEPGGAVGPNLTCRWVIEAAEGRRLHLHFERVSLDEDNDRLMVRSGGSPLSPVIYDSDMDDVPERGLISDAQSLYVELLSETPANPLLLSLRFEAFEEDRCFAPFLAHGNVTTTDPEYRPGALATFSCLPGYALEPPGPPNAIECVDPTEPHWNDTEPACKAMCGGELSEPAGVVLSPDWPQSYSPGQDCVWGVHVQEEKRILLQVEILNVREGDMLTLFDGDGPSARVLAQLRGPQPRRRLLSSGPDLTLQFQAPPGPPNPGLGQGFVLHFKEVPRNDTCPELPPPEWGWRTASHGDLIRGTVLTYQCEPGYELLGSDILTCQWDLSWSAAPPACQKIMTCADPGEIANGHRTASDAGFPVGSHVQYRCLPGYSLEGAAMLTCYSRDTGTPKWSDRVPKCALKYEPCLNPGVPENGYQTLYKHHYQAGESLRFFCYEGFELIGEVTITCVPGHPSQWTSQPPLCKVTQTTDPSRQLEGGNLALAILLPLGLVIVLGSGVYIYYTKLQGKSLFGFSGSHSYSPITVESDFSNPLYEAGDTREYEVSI
row,Molecule,binding to 293-SEZ6L2 cells by flow cytometry
1,B1,recognize a cell line that overexpresses SEZ6L2
2,B2,recognize a cell line that overexpresses SEZ6L2
3,B3,recognize a cell line that overexpresses SEZ6L2

# System: Cynomolgus monkey SEZ6L2
# Test: ForteBio Octet binding kinetics, Protein A biosensors
# Conditions: not given
# Description: (§3) Affinity: The affinity of antibodies to various recombinant SEZ6L2 molecules was determined on an Octet Red (Pall, ForteBio) instrument. After loading reagents into a 96-well plate, the Octet Red with Protein A-conjugated biosensors was programmed as follows: 30 seconds for baseline #1; 120 seconds to immobilize the antibody; 30 seconds for baseline #2; 300 seconds for association of antibody to recombinant SEZ6L2; and 300-600 seconds for dissociation of recombinant SEZ6L2 from the antibody.
# (§4) Table 10, below, indicates the KD, Kon, and Koff values for human antibodies 1A1, 3A1, 3A2, and 3A3 and humanized antibodies 16H8, 3E2, 20C4, and 2E4, for both human SEZ6L2 and cynomolgus monkey SEZL2, as determined by ForteBio Data Analysis 9.0 Kinetics software. Briefly, within the ForteBio Octet red96 instrument, Protein A biosensors were incubated with fixed amounts of the test antibody. The biosensors with bound antibody were then rinsed and dipped into wells containing varying concentrations of the recombinant target protein. Approximately 5 different concentrations were independently tested. After a period of time, the biosensors were dipped into buffer to allow the target protein to dissociate from the antibody. The ForteBio software package generated a best-fit curve for each of the profiles of the varying concentrations of target protein. The calculated affinity measurements were analyzed, and the rate constant values from the middle of the linear range were chosen.
K(off),K(on),Molecule
5.88E−02,2.24E+06,B1
1.41E−04,4.44E+05,B2
2.52E−03,8.28E+05,B3

# Biological target: T4, Human SEZ6L2 (Homo sapiens, UniProt Q6UXD5)
# T4 construct: a protein composed of the extracellular portion of the human SEZ6L2 protein; His6 (C); made in house; host or cells: CHO (ExpiCHO)
# Test: as above
# Conditions: not given
# Description: as §3, §4
# T4 sequence (Q6UXD5 28-844 limits assumed): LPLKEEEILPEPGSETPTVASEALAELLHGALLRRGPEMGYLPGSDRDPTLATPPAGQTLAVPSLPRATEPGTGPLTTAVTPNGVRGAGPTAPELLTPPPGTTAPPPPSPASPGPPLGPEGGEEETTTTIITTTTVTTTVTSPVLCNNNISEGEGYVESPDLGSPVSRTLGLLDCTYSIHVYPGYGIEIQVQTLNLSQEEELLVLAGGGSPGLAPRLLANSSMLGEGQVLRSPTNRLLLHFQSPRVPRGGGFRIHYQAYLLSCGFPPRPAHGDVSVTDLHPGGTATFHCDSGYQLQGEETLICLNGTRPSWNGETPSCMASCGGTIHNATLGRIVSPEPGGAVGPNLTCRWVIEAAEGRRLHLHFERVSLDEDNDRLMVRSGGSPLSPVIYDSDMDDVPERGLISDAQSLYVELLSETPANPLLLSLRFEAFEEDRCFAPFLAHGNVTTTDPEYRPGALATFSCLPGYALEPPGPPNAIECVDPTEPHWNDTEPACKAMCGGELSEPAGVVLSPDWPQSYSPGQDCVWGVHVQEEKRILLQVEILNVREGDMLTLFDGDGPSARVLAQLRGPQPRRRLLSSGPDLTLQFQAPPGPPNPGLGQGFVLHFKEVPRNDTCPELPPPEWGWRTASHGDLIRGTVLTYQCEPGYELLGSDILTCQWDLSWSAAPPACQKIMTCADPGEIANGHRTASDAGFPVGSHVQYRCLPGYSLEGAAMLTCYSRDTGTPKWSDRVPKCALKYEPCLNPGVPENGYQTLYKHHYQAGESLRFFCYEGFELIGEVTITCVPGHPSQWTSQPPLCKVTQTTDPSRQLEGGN
K(off),K(on),Molecule
6.02E−02,2.52E+06,B1
1.37E−04,5.38E+05,B2
2.58E−03,9.54E+05,B3
